# Screen size: about 310,000 compounds; about 2,200 (0.71%) showed an effect of 50% or more. The effect is printed as a negative number. The list shows a part of the results.
# Molecular target: human ether-à-go-go-related gene (hERG) potassium channel (human, UniProt Q12809)
# Experiment: primary screen, population patch clamp on CHO cells stably expressing hERG
# Chain of human ether-à-go-go-related gene (hERG) potassium channel (Q12809 whole entry, looked up): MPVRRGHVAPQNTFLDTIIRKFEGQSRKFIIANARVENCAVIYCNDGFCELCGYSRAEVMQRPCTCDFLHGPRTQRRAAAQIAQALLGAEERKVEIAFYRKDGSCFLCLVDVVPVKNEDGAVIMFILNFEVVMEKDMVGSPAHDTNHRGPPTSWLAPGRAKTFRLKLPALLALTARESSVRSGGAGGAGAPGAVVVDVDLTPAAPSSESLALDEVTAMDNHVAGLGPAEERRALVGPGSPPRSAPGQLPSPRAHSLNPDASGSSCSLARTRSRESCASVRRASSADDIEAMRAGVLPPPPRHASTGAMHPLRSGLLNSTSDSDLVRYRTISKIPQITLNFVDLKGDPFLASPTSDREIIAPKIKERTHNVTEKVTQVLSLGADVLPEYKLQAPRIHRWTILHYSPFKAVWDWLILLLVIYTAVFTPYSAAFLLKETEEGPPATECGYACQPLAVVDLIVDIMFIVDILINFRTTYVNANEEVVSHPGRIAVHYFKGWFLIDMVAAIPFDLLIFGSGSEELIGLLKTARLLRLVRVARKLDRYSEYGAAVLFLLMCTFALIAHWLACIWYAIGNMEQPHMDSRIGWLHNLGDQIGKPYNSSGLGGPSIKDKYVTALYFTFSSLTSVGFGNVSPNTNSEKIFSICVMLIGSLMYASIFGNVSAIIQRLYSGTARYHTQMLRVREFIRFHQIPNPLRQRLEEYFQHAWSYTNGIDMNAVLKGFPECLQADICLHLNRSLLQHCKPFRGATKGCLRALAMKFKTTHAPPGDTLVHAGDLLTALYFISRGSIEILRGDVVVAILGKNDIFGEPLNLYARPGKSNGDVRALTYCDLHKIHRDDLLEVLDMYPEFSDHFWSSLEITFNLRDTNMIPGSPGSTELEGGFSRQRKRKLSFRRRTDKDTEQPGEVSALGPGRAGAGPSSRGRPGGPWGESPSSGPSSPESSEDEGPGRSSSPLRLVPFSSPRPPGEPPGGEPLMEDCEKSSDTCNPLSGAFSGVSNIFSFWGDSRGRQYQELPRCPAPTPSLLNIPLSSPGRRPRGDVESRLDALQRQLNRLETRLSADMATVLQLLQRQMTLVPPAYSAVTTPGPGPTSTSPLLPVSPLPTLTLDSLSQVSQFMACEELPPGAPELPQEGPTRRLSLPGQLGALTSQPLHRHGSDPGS
row,SMILES,"hERG current change (%, negative = inhibition) at 1uM"
1,CCCCCCC(C)n1[nH]c(=O)c2c(C)cc(C)nc21 (stereo not shown),-1.41%
2,CCC(=O)Nc1ccc(C(=O)N/N=C/c2cc(Br)c(OC)cc2OC)cc1,14.4%
3,CC(C)Oc1ccc(C(CC(=O)NCCCN(C)C)c2ccc(F)cc2)cc1 (stereo not shown),-11%
4,CCOc1ccc2ccc(OCC)c(/C=N/n3cnnc3)c2c1,0.916%
5,O=C(CSCc1ccc(F)cc1)NCc1ccco1,16.4%
6,O=C(NCC1CCCO1)C(=O)NCC(c1ccco1)N1CCN(c2ccccc2F)CC1 (stereo not shown),10.8%
7,CC1(C)CC2CC(C)(CN2S(=O)(=O)c2ccc(N)cc2)C1 (stereo not shown),-10%
8,O=C(Nc1ccc(Cl)cc1)NC1CCCCNC1=O (stereo not shown),8.25%
9,O=C(O)Cc1c[nH]c2ccccc12,12.3%
10,COCCOC(=O)C1=C(C)NC(=O)NC1c1c(Cl)nc2c(C)cccn2c1=O (stereo not shown),16.5%
11,Cc1ccc2c(CC(=O)Nc3nc(C)cs3)coc2c1,10.1%
12,Cc1cc(C)n2nc(SCCOc3ccccc3F)nc2n1,2.42%
13,O=C(O[C@H]1[C@H](Cc2ccccc2)NS(=O)(=O)[C@H]2C[C@@H]3C=C[C@]12O3)c1ccc([N+](=O)[O-])cc1,8.3%
14,COc1ccc(-c2noc(CN(C)CCC3CCCCO3)n2)cc1 (stereo not shown),7.94%
15,CCN(C(=O)CSc1nnc(-c2ccc(OC(F)F)cc2)n1N)C1CCS(=O)(=O)C1 (stereo not shown),-0.648%
16,O=c1c2ccccc2cnn1Cc1n[nH]c(=S)n1-c1ccc(F)c(Cl)c1,8.41%
17,COc1ccc(C2/C(=C(/O)c3ccc4c(c3)CC(C)O4)C(=O)C(=O)N2CCCn2ccnc2)cc1 (stereo not shown),13.6%
18,COc1ccc2nc(NC(=O)c3ccccc3-c3ccccc3C(=O)O)sc2c1,12%
19,O=C(c1cccc(COc2cccc3ccccc23)c1)N1CCCC1,13.9%
20,COc1cccc(C(=O)NCc2ccc(-c3nc4ccccc4s3)cc2)c1,18.1%
21,O=C(CC1C(=O)NCCN1C(=O)Nc1ccccc1)Nc1cc(Cl)cc(Cl)c1 (stereo not shown),15.4%
22,COc1ccc(-n2nc3c(c2NC(=O)c2ccco2)CS(=O)(=O)C3)cc1,6.99%

row,SMILES,"hERG current change (%, negative = inhibition) at 1uM"
1,CSc1ccc(C(=O)C2CCCN(C(=O)CN3CCOC3=O)C2)cc1 (stereo not shown),8.73%
2,O=C(NCc1ccco1)C1CCC(N2C(=O)c3ccccc3C2=O)CC1 (stereo not shown),5.32%
3,Cc1ccc(-c2nnc(SCC(=O)Nc3ccc(N4CCOCC4)cc3)o2)cc1,6.18%
4,O=C(Nc1nnc(-c2ccco2)o1)c1cccc2ccccc12,-2.8%
5,COC(=O)C1CCN(C(=O)C2CCN(C(=O)[C@@H](NS(=O)(=O)c3ccc(C)cc3)C(C)C)CC2)CC1,8.23%
6,Cc1ccc(S(=O)(=O)CC(=O)Nc2ccc(S(=O)(=O)Nc3onc(C)c3C)cc2)cc1,8.17%
7,O=C(COC(=O)CCc1ccc(S(=O)(=O)N2CCOCC2)cc1)Nc1ccc(Cl)cn1,-2.33%
8,COc1ccc2c(c1)nc(SCC(C)O)n2C (stereo not shown),11.7%
9,Cc1cc(C)nc(CCNC(=O)CC2C(=O)NCCN2Cc2ccc(F)cc2Cl)n1 (stereo not shown),16%
10,CC(C)N(c1ccccc1)c1ccc(NC(=O)C2CCCO2)cc1 (stereo not shown),4.59%
11,Cc1ccnc(NC(=O)c2ccc3[nH]c(=O)c(=O)[nH]c3c2)c1,10.4%
12,C/C(=N\NC(=O)c1nnn(-c2nonc2N)c1-c1cccs1)c1ccc(O)cc1,-5.85%
13,CCOC(=O)C1=C(C)N=C2SC(C(=O)OC)=CC(=O)N2C1c1cc(OC)c(OC)c(OC)c1 (stereo not shown),10.1%
14,O=C(COc1ccccc1F)N1CCN(S(=O)(=O)/C=C/c2ccccc2)CC1,6.47%
15,O=C(Cc1ccc(Cl)cc1)NC1CCS(=O)(=O)C1 (stereo not shown),-9.77%
16,COC(=O)CNC(=O)C1(C)C=CCN1C(=O)c1ccccc1 (stereo not shown),21.8%
17,CCC1Oc2ccccc2N(CC(=O)NCCCN2CCCC2)C1=O (stereo not shown),11.3%
18,COc1ccc(/C=C/C(=O)Nc2ccccc2C(=O)NCC(c2ccc(OC)cc2)N(C)C)cc1 (stereo not shown),9.87%
19,Cc1ccc(S(=O)(=O)c2c(C)nn(C(C)(C)C)c2OC(=O)CC(C)C)cc1,3.64%
20,CCOC(=O)c1c(-c2ccc(OC)cc2)cn2ccccc12,3.13%
21,O=C(NCC1CCS(=O)(=O)C1)NCC1CCS(=O)(=O)C1 (stereo not shown),12.8%

# Reference: publication PMC4336329 (PLoS ONE, 2015)
